Test results taken from PubChem BioAssay (NCI).
Values joined by “and” are separate entries in the source; they are usually repeats but may differ in a detail not shown here. Equal values may be shown once.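 Following 48 hours of exposure in 96-well plates, responses at five concentrations were used to interpolate endpoints linearly. GI50 = concentration required for 50% inhibition of growth. TGI marks complete inhibition of growth.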

These molecules were tested on NCI-H322M lung (assay: DTP human tumour cell line panel, 48 h).
In the case of `COC(=O)[C@@]12OC[C@]34C([C@@H](O)C1O)[C@@]1(C)CC(=O)C(O)=C(C)C1C[C@H]3OC(=O)[C@H](OC(=O)CC(C)C(F)(F)F)[C@H]42` (stereo partly specified), the TGI is reported as 2.01 µM. `CCCCC[C@H]1C/C=C2/C(=O)C(Cl)=C[C@@H]2C/C=C\CCCC(=O)O[C@@H](CCCCC)C/C=C2/C(=O)C(Cl)=C[C@@H]2C/C=C\CCCC(=O)O1` gave a GI50 of 0.702 µM and a TGI of 2.52 µM. `O=C1CC2C(=O)N(Cc3ccccc3)C1C(S(=O)(=O)c1ccccc1)C2S(=O)(=O)c1ccccc1` (stereo unspecified) was tested, and the TGI was 31.3 µM. `C=C(C)CCC(C)N1CCC(N2CCC(C(=O)NCCc3ccccc3)CC2)CC1` (stereo unspecified) was tested, and the GI50 was 28.9 µM and the TGI was over 100 µM. With `CCC1CN2CCc3cc(OC)c(OC)cc3C2CC1CC1c2cc(OC)c(OC)cc2CCN1C(=O)CNC(=O)OC(C)(C)C` (stereo unspecified) the TGI was 26.3 µM. For `N#Cc1ccc(OCc2ccc3nc(-c4ccccc4)c(Cl)nc3c2)cc1`, the TGI was over 100 µM. For `Cc1cccc(C)c1NC(=O)CCCC(=O)C1CC(=O)CCC1=O` (stereo unspecified), the TGI was over 100 µM. Work on `CCOC(=O)C(O)(NC(=O)Nc1ccc(F)cc1)C(F)(F)F` (stereo unspecified) yielded a TGI of over 100 µM. `CN(N)/N=N/c1nc[nH]c1C(N)=O` showed a TGI of over 100 µM. With `C/C=C(/CCCCNCCCC)[Si](C)(C)C` the TGI was 27.5 µM. For `N#CC1C(N)=NNC12Nc1ccccc1N2` (stereo unspecified), the GI50 was over 100 µM and the TGI was over 100 µM. For `CCCCCc1c(C)[nH]c(/C=C2\N=C(c3ccc[nH]3)C=C2Oc2ccc(Cl)cc2)c1C`, the GI50 was 0.169 µM and 0.0734 µM and the TGI was 74.3 µM. With `COC1OC(COC(=O)NCCCCC(=O)C(F)(F)F)C(O)C(O)C1O` (stereo unspecified) the TGI was over 100 µM. `O=C(Nc1cc(Cl)c(Cl)cc1Cl)C(=O)C(C(=O)c1ccc(Cl)c(Cl)c1)C1OC(=O)c2ccccc21` (stereo unspecified) showed a TGI of 84.4 µM. Molecule `Cn1c(=O)nc2n(-c3ccc(Cl)cc3Cl)c3ccccc3nc-2c1=O` has a TGI of 20.4 µM. Work on `CC(=O)NC(CCCN(Cc1ccccc1)C(=O)N(CCCl)N=O)C(=O)NCc1ccccc1` (stereo unspecified) yielded a TGI of over 100 µM. In the case of `N#Cc1ccccc1NC(=O)c1ccccc1`, the TGI is reported as over 100 µM. `C=C(Br)CN(CC(=C)Br)C(C)=O` was tested, and the TGI was over 100 µM. Work on `CCN1C(=O)C(=Cc2ccc(-c3ccccc3)cc2)C(=O)N(CC)C1=S` yielded a TGI of over 100 µM. For `Cc1ncc([N+](=O)[O-])n1CCNC(=O)CCCn1cnc([N+](=O)[O-])n1`, the TGI was over 100 µM. `C1=NCCOCCN=Cc2ccccc2OCc2cccc(n2)COc2ccccc21` showed a TGI of over 25 µM. In the case of `C/C(=N\NC(N)=O)C(CN(C)C)C(c1ccccc1)c1c(O)c2ccccc2oc1=O` (stereo unspecified), the TGI is reported as over 100 µM. Molecule `O=C(O)c1cc2c(s1)C(=O)c1sccc1C2=O` has a TGI of 25.2 µM. In the case of `CN=C(N)N/N=C(\C)c1ccc2oc3ccc(/C(C)=N/NC(N)=NC)cc3c2c1`, the TGI is reported as over 100 µM. With `O=c1[nH]cnc2c(C3OC(CO)C(O)C3O)scc12` (stereo unspecified) the GI50 was over 100 µM and the TGI was over 100 µM. In the case of `O=C(NN1C(=O)CSC1c1ccc(Cl)cc1)c1[nH]c2ccc(F)cc2c1-c1ccccc1` (stereo unspecified), the GI50 is reported as 3.56 µM and the TGI is reported as 14.8 µM. In the case of `Fc1ccc(Nc2nccc(-c3c(-c4ccc(C(F)(F)F)cc4)nn4ncccc34)n2)cc1F`, the GI50 is reported as over 25 µM and the TGI is reported as over 25 µM. `CC(C)(Br)C(=O)/C=C/c1ccccc1` gave a TGI of 68.3 µM. `Cc1cccc(C(C)(C)C)c1NC(=O)C(=O)C(c1cnc2ccccc2n1)[N+](=O)[O-]` (stereo unspecified) gave a TGI of over 100 µM. `C[C@H](CSC(=O)c1ccccc1)C(=O)N1c2ccccc2C[C@H]1C(=O)O` showed a TGI of over 100 µM. With `CC(C)[C@@H](COC(C)(C)C)N=CN1CCc2c([nH]c3ccccc23)C1` the TGI was over 100 µM. `CC(=O)c1cccc(NCn2nnc3ccccc32)c1` was tested, and the TGI was over 100 µM. With `COC(=O)[C@]1(C)CCC[C@@]2(C)C1CCC1=C[C@@]3(C(C)C)CC[C@]12OO3` (stereo partly specified) the TGI was over 100 µM. Molecule `N#Cc1c2c([nH]c(=O)c1C#N)CCCC2` has a TGI of over 100 µM. For `NC(N)=NC(N)=Nc1c(F)c(F)c(F)c(F)c1F`, the TGI was over 100 µM. `O=C(CC(C(=O)c1ccsc1)c1ccccc1)c1cccs1` (stereo unspecified) showed a TGI of over 100 µM. For `C[C@H](CS(C)(=O)=O)Nc1ncc2cc(Oc3ccc(F)cc3F)c(=O)n(C)c2n1`, the GI50 was over 25 µM and the TGI was over 25 µM. `NC1=Nc2ccccc2Sc2nnc(-c3ccc(Cl)cc3)n21` gave a TGI of over 100 µM.
